Reference: the supplement of paper PMC11417369
The list shows a part of the results.

The sequences below were run on PfHDP1 homeodomain (GST-tagged) (assay: gcPBM binding intensity (ln(normalized median fluorescence intensity)); higher = stronger DNA binding).
In short: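 After 1 h on an Agilent 4 × 180k array of primer-extended double-stranded 36-bp intergenic genomic probes and negative controls, bound GST-tagged P. falciparum DNA-binding domains were detected with Alexa488 anti-GST antibody and scanned at 488 nm. The domains had been expressed in E. coli, and binding took place in 1× PBS with 1% milk, 0.2 mg/ml BSA, 0.5% salmon testes DNA and 0.03% Triton X-100. Binding intensity is the highest Masliner-normalised natural-log median intensity across replicate spots of either probe orientation.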

Sequence | gcPBM binding intensity (ln)
ATCACTAATTTTTTTACACACCACAATTTAATTTTT [CACACA_site1186] | 7.07
CACATTTCTGTAGTTGCATGTAGAAAAAAAAAAAAA [TGCATGCA_site810] | 6.45
AATACAATTGAAAATTGTACTTTGTTTTTTATAAAT [XGTACX_site4080] | 5.83
TTTTGAGAAAAAATAAAATAATAAATAAAAATACAT [XGTACX_negctrl_site66] | 6.48
CATATAATAAATAATACACACATATTGGAAATATAT [CACACA_site3212] | 6.47
AAAGGTATATATGTGTGTACATATATATATATATAT [XGTACX_site5629] | 9.29
GGTCATCATCGGTATTGTACAAAAATGTGAAAATTA [XGTACX_site639] | 6.86
TTTTTTTTTTTGGTTACACACATTTGTATATTCTCA [CACACA_site134] | 6.45
CATATTAATACAGAATGTACGGATAACAAACTGTTT [XGTACX_site7935] | 6.12
CCATAACTCCTATGCACACATAAATATTACAGAGAT [CACACA_site5984] | 9.78
TTTTATTTAGGAGGTGCATGTAATACGGAACATAAT [TGCATGCA_site827] | 8.17
GATTTATATTTTAAAAGTACAAGTTAAAATAAAAGT [XGTACX_site7059] | 6.6
TTTGATTTTAATGTGTGTACACATTTATTTATATAA [XGTACX_site4806] | 6.65
ATATAATATCTGTATACACACATATTATATAATATT [CACACA_site5940] | 6.72
AATATAAGATTATTATGTACATAATAAATATGTATT [XGTACX_site4773] | 6.52
ATATAAGTATAATTATGTACTTATACTTATATAAAT [XGTACX_site5585] | 6.22
ATTAGTTTATATGAATGATTTTTCTTTTTTTTTTTT [CACACA_negctrl_site88] | 6.05
TTACTATTTCACTGTGCATGCAACAAAAATCTATCT [TGCATGCA_site808] | 9.48
ATATTTTGGGTGTTGTTTTTTTTTAAAACTCTTTAA [CACACA_negctrl_site1255] | 6.92
AAAAATAAAAAAAAATTAAAATATATATATTTTGTT [TGCATGCA_negctrl_site102] | 6.4
AACATATTTATATACACACACATATTTATATGAAAT [CACACA_site6268] | 6.85
GAGAGGATACATACATGTACATAAATATTTTATTTT [XGTACX_site5129] | 6.52

Sequence | gcPBM binding intensity (ln)
AGGAAAAAAAGTAGCACACAAATATTTATAATATAT [CACACA_site2437] | 6.65
AAAAAAAAAAAAAATAATAAATAAATAAATAAATAA [GTGCAC_negctrl_site505] | 6.85
CGTAGCCGCACTAACACACACAAATATACGCAATCA [CACACA_site2898] | 7.03
TTTTGAATTAAACAAGCATGCTTTATTTACTTCTTA [TGCATGCA_site289] | 6.32
TAATTTATTAATAATTGTACAGATATTATACTTAAA [XGTACX_site8947] | 6.2
TAATTCATCCTATGCACACACAATACCAAAATGTGC [CACACA_site4269] | 10.1
TGCTCATGAGGTCAGAGTACAAAATAGTAAATGTAT [XGTACX_site2973] | 6.94
TTTTTTTTTTTTTTTCTTTTTTATTCTCACAAAAAA [CACACA_negctrl_site1790] | 6.09
TTTATTTTTATTTTTGTGCACGGGATTAAATAAAAG [GTGCAC_site9842] | 9.88
GAACAAATTACAAGTTGTACTTTATGTAAATTATTA [XGTACX_site5304] | 6.2
TTTTTATAACAAAGTATTTAAATAATTTATACTAAT [TGCATGCA_negctrl_site104] | 6.41
ATGCGTTCATACATACATACATACATACAATTTGTA [TGCATGCA_negctrl_site50] | 6.76
AACATTTATATTTAAGTGCAGATGCTGTAATTTAGA | 7.14
AAATTTATATATAGTTGTACAAAAATATGTTTCGTA [XGTACX_site4801] | 6.62
TTATTTTATCACACATGTACATATGTTAATTTTTTT [XGTACX_site5598] | 6.88
AAAATAAAAAGAAATAAATTAACAGTAAGGAAAAAA [CACACA_negctrl_site1105] | 6.75
TGAATAATCAATAGTACACACATATAAATATATATA [CACACA_site2813] | 6.49
ATATTTTTTCTGAACGGTACAGAATTTTTCAAGATT [XGTACX_site484] | 6.51
TATATATATCTGTATACACACATATGTATGTTATGT [CACACA_site6090] | 6.99
CCTTTTTCTAATGGATGTACTTATTATATACATTAT [XGTACX_site281] | 6.4
AAGAAAAGTAAATATGCATGTAGGGTAGGTTATTTT [TGCATGCA_site46] | 6.65
ATATAACAGAAACACACACACATATATATATATTAT [CACACA_site4140] | 6.95
